In publication PMC12820563, “FoxP3 forms a head-to-head dimer in vivo and stabilizes its multimerization on adjacent microsatellites”:
The other results are listed elsewhere or left out.

biological target: T1, MBP-FoxP1dN (Mus musculus, UniProt P58462 326-579); experiment: PD-seq (MBP pull-down with sequencing); 20 mM Tris-HCl pH 7.5, 100 mM NaCl, 1.5 mM MgCl2, 0.4 uM protein, 0.1 uM dsDNA library, 30 min, room temperature, amylose pull-down; high values mean tight binding; conditions: protein: recombinant; tags: His6-MBP; chain copies: 2; dsDNA, one strand shown
T1 sequence: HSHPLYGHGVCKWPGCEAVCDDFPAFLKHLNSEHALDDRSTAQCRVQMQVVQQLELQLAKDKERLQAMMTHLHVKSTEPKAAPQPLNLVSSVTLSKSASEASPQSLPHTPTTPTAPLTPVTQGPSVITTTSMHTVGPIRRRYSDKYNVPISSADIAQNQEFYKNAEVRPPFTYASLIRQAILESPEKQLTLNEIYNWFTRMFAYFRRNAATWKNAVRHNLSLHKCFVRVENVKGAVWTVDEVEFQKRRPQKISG
In short: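 Binding is reads-per-million enrichment of pull-down over input, with replicates pooled. It comes from 30 min room-temperature incubation in Tris pH 7.5 buffer with NaCl and MgCl2 of 0.4 µM His6-MBP-tagged, N-terminally truncated mouse FoxP3 or FoxP1 fragment from E. coli with 0.1 µM Klenow-filled degenerate double-stranded DNA library, followed by amylose resin capture, three washes and Illumina sequencing of the released DNA.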

Row | Sequence | binding signal
1 | GATGATTGTTCTCCCAGCTGATGAATTACGGAACTCGAGTAAACAAATTTTCCTAATCTTTCTGTTCAAGCGCCATCTAC | 0.99 RPM ratio (pull-down/input)
2 | GATGATTGTTCTCCCAGCTGATGAATTACTGGGATCGAGTAAACAAATTTTCCTAATCTTTCTGTTCAAGCGCCATCTAC | 0.999 RPM ratio (pull-down/input)
3 | GATGATTGTTCTCCCAGCTGATGAATTCTTCTGATCGAGTAAACAAATTTTCCTAATCTTTCTGTTCAAGCGCCATCTAC | 0.96 RPM ratio (pull-down/input)
4 | GATGATTGTTCTCCCAGCTGATGAATTGTGGATGTCGAGTAAACAAATTTTCCTAATCTTTCTGTTCAAGCGCCATCTAC | 1.12 RPM ratio (pull-down/input)
5 | GATGATTGTTCTCCCAGCTGATGAATTTAAAGGTTCGAGTAAACAAATTTTCCTAATCTTTCTGTTCAAGCGCCATCTAC | 0.8 RPM ratio (pull-down/input)
6 | GATGATTGTTCTCCCAGCTGATGAATTGGCCCTGTCGAGTAAACAAATTTTCCTAATCTTTCTGTTCAAGCGCCATCTAC | 0.778 RPM ratio (pull-down/input)
7 | GATGATTGTTCTCCCAGCTGATGAATTATGGATGTCGAGTAAACAAATTTTCCTAATCTTTCTGTTCAAGCGCCATCTAC | 0.983 RPM ratio (pull-down/input)
8 | GATGATTGTTCTCCCAGCTGATGAATTCAGGAAATCGAGTAAACAAATTTTCCTAATCTTTCTGTTCAAGCGCCATCTAC | 0.945 RPM ratio (pull-down/input)
9 | GATGATTGTTCTCCCAGCTGATGAATTACTGTTCTCGAGTAAACAAATTTTCCTAATCTTTCTGTTCAAGCGCCATCTAC | 1.05 RPM ratio (pull-down/input)
10 | GATGATTGTTCTCCCAGCTGATGAATTTTGGCAGTCGAGTAAACAAATTTTCCTAATCTTTCTGTTCAAGCGCCATCTAC | 0.907 RPM ratio (pull-down/input)
11 | GATGATTGTTCTCCCAGCTGATGAATTGAAATGATCGAGTAAACAAATTTTCCTAATCTTTCTGTTCAAGCGCCATCTAC | 0.862 RPM ratio (pull-down/input)
12 | GATGATTGTTCTCCCAGCTGATGAATTGGAAGGGTCGAGTAAACAAATTTTCCTAATCTTTCTGTTCAAGCGCCATCTAC | 0.816 RPM ratio (pull-down/input)
13 | GATGATTGTTCTCCCAGCTGATGAATTAACGACATCGAGTAAACAAATTTTCCTAATCTTTCTGTTCAAGCGCCATCTAC | 1.15 RPM ratio (pull-down/input)
14 | GATGATTGTTCTCCCAGCTGATGAATTAAGGTGATCGAGTAAACAAATTTTCCTAATCTTTCTGTTCAAGCGCCATCTAC | 0.906 RPM ratio (pull-down/input)
15 | GATGATTGTTCTCCCAGCTGATGAATTCGTCTGTTCGAGTAAACAAATTTTCCTAATCTTTCTGTTCAAGCGCCATCTAC | 0.828 RPM ratio (pull-down/input)
16 | GATGATTGTTCTCCCAGCTGATGAATTACGGCACTCGAGTAAACAAATTTTCCTAATCTTTCTGTTCAAGCGCCATCTAC | 0.941 RPM ratio (pull-down/input)
17 | GATGATTGTTCTCCCAGCTGATGAATTTAAGCTCTCGAGTAAACAAATTTTCCTAATCTTTCTGTTCAAGCGCCATCTAC | 0.836 RPM ratio (pull-down/input)
18 | GATGATTGTTCTCCCAGCTGATGAATTGAAGCCATCGAGTAAACAAATTTTCCTAATCTTTCTGTTCAAGCGCCATCTAC | 0.824 RPM ratio (pull-down/input)
